The values below come from article PMC6156606.

Sequences of proteins named here, by UniProt entry; tags and fusion partners are left off.
UniProt Q9UI95: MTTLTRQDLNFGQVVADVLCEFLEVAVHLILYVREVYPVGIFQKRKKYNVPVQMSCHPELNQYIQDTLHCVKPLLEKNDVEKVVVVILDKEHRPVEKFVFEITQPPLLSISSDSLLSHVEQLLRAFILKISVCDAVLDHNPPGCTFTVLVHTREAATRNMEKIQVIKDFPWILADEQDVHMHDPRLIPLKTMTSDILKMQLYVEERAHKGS
UniProt Q5UIP0: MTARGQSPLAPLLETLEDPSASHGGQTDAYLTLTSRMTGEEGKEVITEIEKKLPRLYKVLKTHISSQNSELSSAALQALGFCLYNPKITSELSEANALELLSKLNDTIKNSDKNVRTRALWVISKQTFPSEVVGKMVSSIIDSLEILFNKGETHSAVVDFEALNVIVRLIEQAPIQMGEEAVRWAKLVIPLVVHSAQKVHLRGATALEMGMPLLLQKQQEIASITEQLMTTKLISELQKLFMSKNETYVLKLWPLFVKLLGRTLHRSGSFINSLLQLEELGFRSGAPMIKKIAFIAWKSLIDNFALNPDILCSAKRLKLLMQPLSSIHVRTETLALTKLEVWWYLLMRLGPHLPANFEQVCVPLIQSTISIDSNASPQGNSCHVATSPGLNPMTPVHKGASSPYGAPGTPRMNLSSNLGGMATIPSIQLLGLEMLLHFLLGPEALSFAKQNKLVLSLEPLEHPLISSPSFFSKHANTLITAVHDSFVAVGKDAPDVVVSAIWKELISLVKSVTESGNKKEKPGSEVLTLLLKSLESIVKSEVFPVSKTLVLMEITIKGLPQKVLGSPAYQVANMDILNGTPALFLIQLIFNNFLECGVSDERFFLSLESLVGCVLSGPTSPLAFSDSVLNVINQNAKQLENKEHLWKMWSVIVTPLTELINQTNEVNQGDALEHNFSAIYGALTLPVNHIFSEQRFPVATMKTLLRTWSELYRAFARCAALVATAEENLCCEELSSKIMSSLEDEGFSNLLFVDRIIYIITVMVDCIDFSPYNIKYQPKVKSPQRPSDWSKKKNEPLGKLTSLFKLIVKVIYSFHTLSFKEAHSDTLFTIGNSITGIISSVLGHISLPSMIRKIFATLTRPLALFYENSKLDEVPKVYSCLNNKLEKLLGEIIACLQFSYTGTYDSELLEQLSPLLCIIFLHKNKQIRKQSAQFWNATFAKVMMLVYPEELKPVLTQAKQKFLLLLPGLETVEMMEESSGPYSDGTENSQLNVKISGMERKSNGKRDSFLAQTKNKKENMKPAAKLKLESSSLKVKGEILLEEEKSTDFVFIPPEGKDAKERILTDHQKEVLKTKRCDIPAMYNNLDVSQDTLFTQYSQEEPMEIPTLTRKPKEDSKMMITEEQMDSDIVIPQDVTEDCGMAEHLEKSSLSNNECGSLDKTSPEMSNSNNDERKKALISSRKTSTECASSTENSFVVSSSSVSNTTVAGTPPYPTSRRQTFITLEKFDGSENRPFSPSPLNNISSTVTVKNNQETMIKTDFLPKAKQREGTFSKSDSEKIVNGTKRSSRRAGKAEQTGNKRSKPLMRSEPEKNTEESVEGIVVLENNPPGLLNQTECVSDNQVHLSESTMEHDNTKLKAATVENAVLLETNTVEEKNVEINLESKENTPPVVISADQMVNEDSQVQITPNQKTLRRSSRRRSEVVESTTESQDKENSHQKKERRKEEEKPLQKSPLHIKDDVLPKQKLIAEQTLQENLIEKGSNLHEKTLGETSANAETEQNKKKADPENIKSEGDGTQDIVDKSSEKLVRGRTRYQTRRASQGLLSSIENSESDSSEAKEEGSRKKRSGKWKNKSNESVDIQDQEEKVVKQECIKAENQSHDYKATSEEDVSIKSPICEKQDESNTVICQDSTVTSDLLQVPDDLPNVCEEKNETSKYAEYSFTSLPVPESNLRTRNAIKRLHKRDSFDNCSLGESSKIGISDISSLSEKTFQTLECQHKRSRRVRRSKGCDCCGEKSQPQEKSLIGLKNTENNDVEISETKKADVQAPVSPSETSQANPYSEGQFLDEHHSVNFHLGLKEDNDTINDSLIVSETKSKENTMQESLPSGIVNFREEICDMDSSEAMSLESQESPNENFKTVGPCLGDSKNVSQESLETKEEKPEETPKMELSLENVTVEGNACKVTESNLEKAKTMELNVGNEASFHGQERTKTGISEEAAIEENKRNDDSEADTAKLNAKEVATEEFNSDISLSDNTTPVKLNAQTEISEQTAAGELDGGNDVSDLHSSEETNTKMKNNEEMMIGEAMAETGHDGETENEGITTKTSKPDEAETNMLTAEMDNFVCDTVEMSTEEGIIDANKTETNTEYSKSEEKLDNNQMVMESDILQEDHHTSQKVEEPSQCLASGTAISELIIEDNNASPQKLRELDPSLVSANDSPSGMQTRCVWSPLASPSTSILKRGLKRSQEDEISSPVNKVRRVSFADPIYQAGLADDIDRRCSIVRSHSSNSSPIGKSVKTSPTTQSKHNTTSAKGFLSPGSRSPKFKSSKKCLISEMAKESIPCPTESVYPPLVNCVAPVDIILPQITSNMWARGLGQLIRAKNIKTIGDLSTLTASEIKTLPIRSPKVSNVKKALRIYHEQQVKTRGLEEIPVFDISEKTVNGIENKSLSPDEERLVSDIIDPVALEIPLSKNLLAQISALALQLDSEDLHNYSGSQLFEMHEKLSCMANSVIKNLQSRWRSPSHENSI

These are yes or no findings as the source states them, for the method shown. Binding seen in cells or lysates may run through a third protein. Some entries that bind do so weakly or less than the wild type. For some of these results: Tags and fused reporters may be left off the sequences shown.

One experiment deals with T1, MBP–FAM35A_RBD (human) (UniProt Q86V20).
T1 sequence: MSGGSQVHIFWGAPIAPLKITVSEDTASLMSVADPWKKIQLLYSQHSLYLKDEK
The experiment can be described thus: pull-down; MBP–FAM35A_RBD expressed in HEK293 suspension cells; NTEN lysate on amylose resin 4 h at 4 °C; eluted with maltose.

Experiment [1] concerns the target T2, FLAG-tagged C20ORF196 (human) (UniProt Q8IYI0).
T2 sequence: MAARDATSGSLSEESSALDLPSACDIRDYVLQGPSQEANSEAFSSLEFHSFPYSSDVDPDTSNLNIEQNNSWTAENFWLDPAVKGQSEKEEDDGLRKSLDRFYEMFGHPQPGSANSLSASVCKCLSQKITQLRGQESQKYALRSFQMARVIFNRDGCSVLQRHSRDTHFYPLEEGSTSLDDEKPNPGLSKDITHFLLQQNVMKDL
The experiment can be described thus: co-IP; FLAG-tagged bait transiently expressed in HEK293 suspension cells; anti-Flag M2 agarose; immunoblot of the eluate; IPs with or without 100 μg/ml EtBr. (In western blotting, separated proteins are transferred to a membrane and probed.)

For experiment [2], the target named is T3, FLAG-tagged FAM35A (human) (UniProt Q86V20).
T3 sequence: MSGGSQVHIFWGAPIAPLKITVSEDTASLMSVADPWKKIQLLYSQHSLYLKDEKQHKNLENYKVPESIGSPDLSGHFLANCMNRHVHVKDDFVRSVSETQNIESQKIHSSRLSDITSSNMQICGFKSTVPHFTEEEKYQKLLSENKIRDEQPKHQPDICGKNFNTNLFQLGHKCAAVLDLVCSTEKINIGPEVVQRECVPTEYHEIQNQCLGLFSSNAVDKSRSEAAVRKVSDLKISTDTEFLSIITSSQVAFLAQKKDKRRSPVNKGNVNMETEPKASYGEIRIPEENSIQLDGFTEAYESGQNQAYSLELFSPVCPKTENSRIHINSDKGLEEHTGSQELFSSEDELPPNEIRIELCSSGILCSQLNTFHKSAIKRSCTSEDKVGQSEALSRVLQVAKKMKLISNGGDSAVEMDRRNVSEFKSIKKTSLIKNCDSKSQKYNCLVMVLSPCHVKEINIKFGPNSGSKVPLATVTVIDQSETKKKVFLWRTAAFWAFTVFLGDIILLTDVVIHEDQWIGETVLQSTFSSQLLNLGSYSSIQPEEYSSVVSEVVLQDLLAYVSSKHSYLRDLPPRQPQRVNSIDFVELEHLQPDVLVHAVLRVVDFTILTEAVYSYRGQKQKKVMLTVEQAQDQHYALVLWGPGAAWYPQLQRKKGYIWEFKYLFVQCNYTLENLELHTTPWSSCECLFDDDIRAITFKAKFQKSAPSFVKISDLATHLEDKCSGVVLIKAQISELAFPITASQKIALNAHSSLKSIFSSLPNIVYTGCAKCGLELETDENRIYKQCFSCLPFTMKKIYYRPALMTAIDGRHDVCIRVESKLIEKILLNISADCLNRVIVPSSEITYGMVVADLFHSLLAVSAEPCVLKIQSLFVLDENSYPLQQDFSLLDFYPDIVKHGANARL
The description is as above.

In the next experiment the target is FLAG-REV7 (human) (UniProt Q9UI95). The description is as above.
The next experiment concerns the target T4, MBP–FAM35A (human) (UniProt Q86V20).
T4 sequence: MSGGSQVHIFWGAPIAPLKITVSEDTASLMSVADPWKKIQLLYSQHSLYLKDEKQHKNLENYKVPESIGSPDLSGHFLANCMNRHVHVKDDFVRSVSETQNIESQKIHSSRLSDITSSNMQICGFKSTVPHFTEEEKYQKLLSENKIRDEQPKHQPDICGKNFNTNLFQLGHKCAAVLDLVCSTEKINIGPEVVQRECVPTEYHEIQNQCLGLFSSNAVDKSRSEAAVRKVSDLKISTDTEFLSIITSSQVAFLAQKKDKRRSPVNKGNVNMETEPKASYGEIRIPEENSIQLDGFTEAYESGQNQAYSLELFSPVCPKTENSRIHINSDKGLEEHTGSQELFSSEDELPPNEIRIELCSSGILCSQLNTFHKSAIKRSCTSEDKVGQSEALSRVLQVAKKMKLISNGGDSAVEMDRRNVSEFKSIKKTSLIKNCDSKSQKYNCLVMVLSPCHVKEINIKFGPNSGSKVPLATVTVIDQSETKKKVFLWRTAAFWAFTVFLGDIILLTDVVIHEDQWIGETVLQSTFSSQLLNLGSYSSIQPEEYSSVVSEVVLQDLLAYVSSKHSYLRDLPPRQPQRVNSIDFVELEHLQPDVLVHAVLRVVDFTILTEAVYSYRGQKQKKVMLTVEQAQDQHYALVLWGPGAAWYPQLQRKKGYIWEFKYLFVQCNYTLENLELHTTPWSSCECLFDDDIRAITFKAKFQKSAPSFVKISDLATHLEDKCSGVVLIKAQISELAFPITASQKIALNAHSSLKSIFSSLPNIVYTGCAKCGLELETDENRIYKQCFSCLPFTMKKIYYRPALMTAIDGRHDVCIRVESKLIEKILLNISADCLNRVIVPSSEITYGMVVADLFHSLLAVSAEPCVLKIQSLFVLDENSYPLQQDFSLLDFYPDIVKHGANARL
Put plainly: pull-down; MBP- and GST-pulldown with recombinant proteins; bait detected by Coomassie blue staining, prey by immunoblotting.

The target of the next experiment is GST–REV7 (human) (UniProt Q9UI95). Described as above.

With REV7 (from UniProt Q9UI95 1-211), the binding result (in the experiment with MBP–FAM35A_RBD (human); in experiment [1]; in experiment [2]) was “binds” in each case.

RIF1 (from UniProt Q5UIP0 1-2472): the binding entry (in experiment [1]; in the experiment with FLAG-REV7 (human); in experiment [2]) was “binds” each time.

As to “REV7 (recombinant) (from UniProt Q9UI95 1-211)”, the binding entry with MBP–FAM35A (human) was “binds”.

B1: C20ORF196 (protein, UniProt Q8IYI0 1-205)
chain: MAARDATSGSLSEESSALDLPSACDIRDYVLQGPSQEANSEAFSSLEFHSFPYSSDVDPDTSNLNIEQNNSWTAENFWLDPAVKGQSEKEEDDGLRKSLDRFYEMFGHPQPGSANSLSASVCKCLSQKITQLRGQESQKYALRSFQMARVIFNRDGCSVLQRHSRDTHFYPLEEGSTSLDDEKPNPGLSKDITHFLLQQNVMKDL
Turning to B1, the binding result (with FLAG-REV7 (human); in experiment [2]) was “binds” throughout.

B2: C20ORF196 (recombinant) (protein, UniProt Q8IYI0 1-205)
chain: MAARDATSGSLSEESSALDLPSACDIRDYVLQGPSQEANSEAFSSLEFHSFPYSSDVDPDTSNLNIEQNNSWTAENFWLDPAVKGQSEKEEDDGLRKSLDRFYEMFGHPQPGSANSLSASVCKCLSQKITQLRGQESQKYALRSFQMARVIFNRDGCSVLQRHSRDTHFYPLEEGSTSLDDEKPNPGLSKDITHFLLQQNVMKDL
With B2, the binding result in the experiment with MBP–FAM35A (human) and with GST–REV7 (human) was “binds” in each case.

B3: POLD3 (protein, UniProt Q15054 1-466)
chain: MADQLYLENIDEFVTDQNKIVTYKWLSYTLGVHVNQAKQMLYDYVERKRKENSGAQLHVTYLVSGSLIQNGHSCHKVAVVREDKLEAVKSKLAVTASIHVYSIQKAMLKDSGPLFNTDYDILKSNLQNCSKFSAIQCAAAVPRAPAESSSSSKKFEQSHLHMSSETQANNELTTNGHGPPASKQVSQQPKGIMGMFASKAAAKTQETNKETKTEAKEVTNASAAGNKAPGKGNMMSNFFGKAAMNKFKVNLDSEQAVKEEKIVEQPTVSVTEPKLATPAGLKKSSKKAEPVKVLQKEKKRGKRVALSDDETKETENMRKKRRRIKLPESDSSEDEVFPDSPGAYEAESPSPPPPPSPPLEPVPKTEPEPPSVKSSSGENKRKRKRVLKSKTYLDGEGCIVTEKVYESESCTDSEEELNMKTSSVHRPPAMTVKKEPREERKGPKKGTAALGKANRQVSITGFFQRK
As for B3, the binding result in experiment [1] is given as “no binding”; with FLAG-REV7 (human), “binds”; in experiment [2] it was “no binding”.

B4: FAM35A (protein, UniProt Q86V20-2 1-904)
chain: MSGGSQVHIFWGAPIAPLKITVSEDTASLMSVADPWKKIQLLYSQHSLYLKDEKQHKNLENYKVPESIGSPDLSGHFLANCMNRHVHVKDDFVRSVSETQNIESQKIHSSRLSDITSSNMQICGFKSTVPHFTEEEKYQKLLSENKIRDEQPKHQPDICGKNFNTNLFQLGHKCAAVLDLVCSTEKINIGPEVVQRECVPTEYHEIQNQCLGLFSSNAVDKSRSEAAVRKVSDLKISTDTEFLSIITSSQVAFLAQKKDKRRSPVNKGNVNMETEPKASYGEIRIPEENSIQLDGFTEAYESGQNQAYSLELFSPVCPKTENSRIHINSDKGLEEHTGSQELFSSEDELPPNEIRIELCSSGILCSQLNTFHKSAIKRSCTSEDKVGQSEALSRVLQVAKKMKLISNGGDSAVEMDRRNVSEFKSIKKTSLIKNCDSKSQKYNCLVMVLSPCHVKEINIKFGPNSGSKVPLATVTVIDQSETKKKVFLWRTAAFWAFTVFLGDIILLTDVVIHEDQWIGETVLQSTFSSQLLNLGSYSSIQPEEYSSVVSEVVLQDLLAYVSSKHSYLRDLPPRQPQRVNSIDFVELEHLQPDVLVHAVLRVVDFTILTEAVYSYRGQKQKKVMLTVEQAQDQHYALVLWGPGAAWYPQLQRKKGYIWEFKYLFVQCNYTLENLELHTTPWSSCECLFDDDIRAITFKAKFQKSAPSFVKISDLATHLEDKCSGVVLIKAQISELAFPITASQKIALNAHSSLKSIFSSLPNIVYTGCAKCGLELETDENRIYKQCFSCLPFTMKKIYYRPALMTAIDGRHDVCIRVESKLIEKILLNISADCLNRVIVPSSEITYGMVVADLFHSLLAVSAEPCVLKIQSLFVLDENSYPLQQDFSLLDFYPDIVKHGANARL
In the case of B4, the binding entry (in experiment [1]; in the experiment with FLAG-REV7 (human)) was “binds” in each case.
